Results from the supplement of paper PMC5919970.
Structures can show the parent of a compound that is named as a salt. The full ranking holds about 2,000 compounds; the median of “fractional viability relative to vehicle” is about 0.91, and the lowest 2% start at about 0.045. This is one part of the list.

Test system: TYKNU
Experiment: fractional viability relative to vehicle; TYKNU is a high-grade serous ovarian cancer line; higher = less growth inhibition
Settings: 72 h
Method in brief: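 Drug treatment lasted 72 h, with cells grown at 37 °C in 5% CO2 in RPMI 1640 supplemented with 10% FBS. Beforehand, TYKNU control cells or their lentiCRISPRv2 knockout derivatives had been seeded at 500 cells per well into drug-stamped 384-well plates carrying a ~2100-compound library at 2 or 10 μM, in duplicate. Viability came from Cell Titer Glo luminescence, with averaged duplicate treatment wells normalised to duplicate control wells in the same plate position.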

[1] = 2uM, genotype: DNM1L knockout (sgDNM1L #1)
[2] = 2uM, genotype: sgCTRLA1 (non-targeting control)
[3] = 10uM, genotype: DNM1L knockout (sgDNM1L #1)
[4] = 10uM, genotype: sgCTRLA1 (non-targeting control)

SMILES | fractional viability [1] | fractional viability [2] | fractional viability [3] | fractional viability [4]
CC(C)C[C@@H]1NC(=O)[C@@H](C(C)C)NC(=O)[C@@H]2CCCN2C(=O)[C@@H](CC(=O)O)NC(=O)[C@@H](Cc2c[nH]c3ccccc23)NC1=O | 0.701 | 0.892 | 0.809 | 0.824
N=C(N)NC(=O)c1nc(Cl)c(N)nc1N [Amiloride HCl] | 0.949 | 0.976 | 0.845 | 0.969
CCOC(=O)c1ccc(NC(=O)O[C@H]2[C@H](OC(=O)Nc3ccc4c(c3)OCO4)[C@@H](OC(=O)Nc3ccc4c(c3)OCO4)[C@@H](OC)O[C@@H]2CO)cc1 | 0.821 | 1.04 | 0.616 | 0.615
CCCCOc1cc(C(=O)NCCN(CC)CC)c2ccccc2n1 [Dibucaine HCl] | 1.07 | 1.09 | 0.769 | 0.943
CCNC(=O)C#Cc1ccc2c(C(=Nc3ccc(CN(C)C)cc3)c3ccccc3)c(O)[nH]c2c1 | 0.122 | 0.0962 | 0.0494 | 0.0319
O=C1CCc2cc(OCCCCc3nnnn3C3CCCCC3)ccc2N1 [Cilostazol] | 0.981 | 1.16 | 1.05 | 1.08
CCS(=O)(=O)CCn1c([N+](=O)[O-])cnc1C [Tinidazole] | 1.8 | 1.34 | 1.19 | 1.33
N#C[C@@H]1C[C@@H]2C[C@@H]2N1C(=O)[C@@H](N)C12CC3CC(CC(O)(C3)C1)C2 [Saxagliptin] | 1.01 | 1.04 | 0.919 | 0.96
CCC1=C(C)CN(C(=O)NCCc2ccc(S(=O)(=O)NC(=O)N[C@H]3CC[C@H](C)CC3)cc2)C1=O [Glimepiride] | 1.02 | 1.21 | 0.871 | 1.15
COc1cc(Nc2nc3ccccc3nc2NS(=O)(=O)c2ccc(NC(=O)c3ccc(C)c(OC)c3)cc2)cc(OC)c1 | 1.03 | 0.985 | 1.2 | 0.943
Nc1ncnc2c1c(-c1cnc3[nH]ccc3c1)nn2C1CCCC1 | 0.378 | 0.46 | 0.129 | 0.146
Cc1cc(C(O)=C2C(=O)C(=O)N(CCCN3CCOCC3)C2c2ccncc2)ccc1OCc1ccccc1 (stereo not drawn) | 0.77 | 0.984 | 0.802 | 0.726
CC(C)NCC(O)COc1cccc2ccccc12 (stereo not drawn) [Propranolol HCl] | 0.866 | 1.12 | 0.82 | 1.1
Cc1nc(NC(=O)N2CCC[C@H]2C(N)=O)sc1-c1ccnc(C(C)(C)C(F)(F)F)c1 | 0.664 | 0.903 | 0.43 | 0.708
CCC1C/C(=C\c2cccnc2)C(=O)/C(=C/c2cccnc2)C1 (stereo not drawn) | 0.104 | 0.0876 | 0.0563 | 0.0253
CN(C)Cc1ccc(-c2nc3cccc4c3n2CCNC4=O)cc1 | 0.981 | 1.08 | 0.751 | 0.885
O=C(/C=C\n1cnc(-c2cc(C(F)(F)F)cc(C(F)(F)F)c2)n1)NNc1cnccn1 | 0.132 | 0.169 | 0.106 | 0.152
Cc1[nH]c(/C=C2\C(=O)Nc3ccc(S(=O)(=O)N(C)c4cccc(Cl)c4)cc32)c(C)c1C(=O)N1CCN(C)CC1 | 1.02 | 0.999 | 0.152 | 0.189
CC(C)C[C@H](NC(=O)[C@H]1O[C@@H]1C(=O)O)C(=O)NCCCCN=C(N)N | 0.77 | 0.939 | 0.841 | 0.801

SMILES | fractional viability [1] | fractional viability [2] | fractional viability [3] | fractional viability [4]
COC(=O)[C@@H]1[C@H]2C[C@H]3c4[nH]c5ccccc5c4CCN3C[C@@H]2CC[C@@H]1O [Yohimbine HCl] | 0.908 | 1.03 | 0.827 | 1.19
Oc1c2ccccc2c2c3c(cccc13)N=N2 | 1.29 | 1.21 | 0.842 | 1.17
CCCCNC(=O)NS(=O)(=O)c1ccc(C)cc1 [Tolbutamide] | 1.06 | 1.06 | 0.99 | 1.03
C[C@@H]1O[C@@H](O[C@H]2[C@H](Oc3cc(O)c(C(=O)CCc4ccc(O)cc4)c(O)c3)O[C@H](CO)[C@@H](O)[C@@H]2O)[C@H](O)[C@H](O)[C@H]1O [Naringin Dihydrochalcone] | 1.08 | 1.1 | 1.14 | 0.959
CCCS(=O)(=O)Nc1ccc(F)c(C(=O)c2c[nH]c3ncc(-c4ccc(Cl)cc4)cc23)c1F [Vemurafenib (PLX4032, RG7204)] | 1.05 | 1.26 | 0.823 | 0.974
Cc1cccc(-c2[nH]c(CNc3ccccc3F)nc2-c2ccc3ncnn3c2)n1 | 0.988 | 1.03 | 1.1 | 0.875
O=C(Nc1c(Cl)cncc1Cl)c1ccc(OC(F)F)c(OCC2CC2)c1 [Roflumilast] | 0.966 | 0.959 | 0.921 | 1
CCOC(=O)OC(C)OC1=C(C(=O)Nc2ccccn2)N(C)S(=O)(=O)c2ccccc21 (stereo not drawn) [Ampiroxicam] | 1.16 | 1.04 | 0.851 | 1.05
O=S(=O)(O)CCS [Mesna] | 1.01 | 1.15 | 0.785 | 1.34
Cn1nccc1Nc1nccc(-c2ccn([C@H](CO)c3ccc(Cl)c(F)c3)c(=O)c2)n1 | 0.526 | 0.689 | 0.217 | 0.214
CC(=O)OCC(=O)[C@@]12N=C(C)O[C@@H]1C[C@H]1[C@@H]3CCC4=CC(=O)C=C[C@]4(C)[C@H]3[C@@H](O)C[C@@]12C [Deflazacort] | 1.21 | 1.17 | 0.958 | 1.04
OCc1cc(C(O)CNCCCCCCOCCCCc2ccccc2)ccc1O (stereo not drawn) [Salmeterol Xinafoate] | 0.547 | 0.817 | 0.515 | 0.583
C[C@@H](CN1CC(=O)NC(=O)C1)N1CC(=O)NC(=O)C1 [Dexrazoxane HCl (ICRF-187, ADR-529)] | 1.04 | 1 | 0.886 | 1.09
CNCCC(Oc1ccc(C(F)(F)F)cc1)c1ccccc1 (stereo not drawn) [Fluoxetine HCl] | 1.17 | 1.07 | 0.927 | 0.834
Cc1nc2n(c(=O)c1CCN1CCC(c3noc4cc(F)ccc34)CC1)CCCC2 [Risperidone] | 0.833 | 0.99 | 0.943 | 0.98
CCC(=O)O[C@]1(C(=O)CCl)[C@@H](C)C[C@H]2[C@@H]3C[C@H](F)C4=CC(=O)C=C[C@]4(C)[C@@]3(F)[C@@H](O)C[C@@]21C [Halobetasol Propionate] | 1.12 | 1.08 | 0.548 | 0.975
CN(C)Cc1cccc(N/C(=C2\C(=O)Nc3cc(C(N)=O)ccc32)c2ccccc2)c1 | 1.01 | 0.992 | 1.05 | 0.912
CCN1CC(CCN2CCOCC2)C(c2ccccc2)(c2ccccc2)C1=O (stereo not drawn) [Doxapram HCl] | 1.03 | 1.11 | 0.786 | 1.02
CCC(CC)CC1(C(=O)Nc2ccccc2SC(=O)C(C)C)CCCCC1 | 0.878 | 1.11 | 0.616 | 0.945

SMILES | fractional viability [1] | fractional viability [2] | fractional viability [3] | fractional viability [4]
c1ccc2[nH]c(-c3cscn3)nc2c1 [Thiabendazole] | 0.943 | 0.979 | 0.907 | 0.866
Cn1cc(-c2ccc3nnc(C(F)(F)c4ccc5ncccc5c4)n3n2)cn1 | 1.13 | 0.994 | 1.03 | 0.954
CNC(=O)Nc1ccc(-c2nc(N3CC4CCC(C3)O4)c3cnn(C4CCC5(CC4)OCCO5)c3n2)cc1 | 0.199 | 0.212 | 0.188 | 0.166
CN1CC2c3ccccc3Oc3ccc(Cl)cc3C2C1 (stereo not drawn) [Asenapine] | 1 | 1.16 | 0.833 | 1.01
CCCCNc1ncc2c(-c3ccc(CN4CCN(C)CC4)cc3)cn([C@H]3CC[C@H](O)CC3)c2n1 | 0.322 | 0.41 | 0.0773 | 0.0599
COC1=C2C[C@@H](C)C[C@H](OC)[C@H](O)[C@@H](C)/C=C(\C)[C@H](OC(N)=O)[C@@H](OC)/C=C\C=C(/C)C(=O)NC(=CC1=O)C2=O [Geldanamycin] | 0.295 | 0.17 | 0.0611 | 0.0545
COc1cc(Nc2ncc(F)c(Nc3ccc4c(n3)N(COP(=O)(O)O)C(=O)C(C)(C)O4)n2)cc(OC)c1OC [Fostamatinib (R788)] | 1.03 | 1.06 | 0.301 | 0.365
COc1ccc(-c2cc(=O)c3c(O)cc(O[C@@H]4O[C@H](CO[C@@H]5O[C@@H](C)[C@H](O)[C@@H](O)[C@H]5O)[C@@H](O)[C@H](O)[C@H]4O)cc3o2)cc1O [Diosmin] | 0.94 | 1.11 | 1.16 | 1.14
CC1(C)S[C@@H]2[C@H](NC(=O)[C@H](NC(=O)N3CCN(S(C)(=O)=O)C3=O)c3ccccc3)C(=O)N2[C@H]1C(=O)O [Mezlocillin Sodium] | 0.766 | 0.974 | 0.681 | 0.965
Cn1c(=O)cc(N2CCC[C@@H](N)C2)n(Cc2ccccc2C#N)c1=O [Alogliptin] | 0.928 | 0.995 | 0.894 | 1.03
CCCCCCCN(CC)CCCC(O)c1ccc(NS(C)(=O)=O)cc1 (stereo not drawn) [Ibutilide Fumarate] | 0.919 | 1 | 0.783 | 0.871
Cc1nnc(C(C)C)n1C1C[C@H]2CC[C@@H](C1)N2CC[C@H](NC(=O)C1CCC(F)(F)CC1)c1ccccc1 (stereo in doubt) [Maraviroc] | 0.973 | 1.15 | 0.873 | 1.03
COc1cnc(NS(=O)(=O)c2ccc(N)cc2)nc1 [Sulfameter] | 0.993 | 1.04 | 0.919 | 1.02
COc1cc(CCC(C)=O)ccc1O [Vanillylacetone] | 0.907 | 1.3 | 0.924 | 1.12
O=NN(CCCl)C(=O)NC1CCCCC1 [Lomustine] | 0.92 | 1.05 | 0.391 | 0.418
CC(C)c1cc(C(=O)N2Cc3ccc(CN4CCN(C)CC4)cc3C2)c(O)cc1O | 0.254 | 0.211 | 0.265 | 0.235
CN1CCC(COc2cnc(-c3cccc(Cn4nc(-c5cccc(C#N)c5)ccc4=O)c3)nc2)CC1 | 0.843 | 1.02 | 0.115 | 0.126
COc1cc(C(=O)NC2CCCNC2)cc(OC)c1OC (stereo not drawn) [Troxipide] | 0.905 | 1.08 | 0.871 | 1.01
C[C@]12CC[C@@H]3c4ccc(O)cc4CC[C@H]3[C@@H]1CCC2=O [Estrone] | 0.947 | 1.01 | 0.983 | 0.979
